Source: ChEMBL document CHEMBL4888484, “Replenishing the malaria drug discovery pipeline: Screening and hit evaluation of the MMV Hit Generation Library 1 (HGL1) against asexual blood stage Plasmodium falciparum ,using a nano luciferase reporter read-out” (2022)
The campaign covered roughly 150,000 compounds. About 540 (0.36%) showed an effect of 50% or more. This is one part of the list.

Test system: Plasmodium falciparum
Test: Primary screen in NF54 nanoGlo assay, in single point, at 2uM, 72h; a lower Z score goes with more inhibition
Type: functional, Erythrocyte
Details: timepoint 72 hour

SMILES	% Inhibition [%]	Z score
CN(C)CCOc1ccc(CNc2ccnc(C3CC3)n2)cc1	9	-1.16
O=C1OC2(CCN(C(=O)c3cccc(C(F)(F)F)c3)CC2)c2ccccc21	-14	2.75
CC(C)(C)S(=O)(=O)CC(=O)N(C1CCCC1)C1CCCC1	0	0.04
COCCNc1nc(-c2ccc3c(c2)OCO3)cc(-c2c(C)nn(C)c2C)n1	-10	1.84
CN(C)C(=O)Cn1c(=O)n(CCc2ccccc2)c2ccc(C(=O)O)cc21	2	-0.32
Cc1nn(C)c(C)c1S(=O)(=O)N1CCC(n2ccnn2)CC1	-18	2.83
CN1C(=O)Cc2cc(-c3ccc4c(c3)CCN4)cnc21	-4	0.68
COc1ccccc1-n1nc(Cc2ccccc2)n(CC(=O)N[C@@H](C)CO)c1=O	-5	0.91
Cc1ccsc1-c1c(-c2ccccc2)ncn1CCF	-13	1.64
CC(C)(C)NC(=O)NCCc1ccoc1	-3	0.43
CC(=O)N1CCCC(C(=O)N2CC(C)C2c2ccccc2)C1 (centres undefined)	6	-1.03
CCO[C@H]1C[C@@H](O)C12CCN(Cc1nnc(C3CC3)o1)CC2	10	-1.82
COC[C@H](NC(=O)c1c(C)[nH]c(C)cc1=O)c1ccccn1	-13	2.32
CCc1noc(C(C)N(C)CC(C)c2nccs2)n1 (centres undefined)	-16	2.06
COCn1nccc1S(=O)(=O)N1CC(F)(F)C1	-11	1.66
CC(C)=CCO[C@H]1COCC[C@@H]1NC(=O)c1cccnc1	-5	0.67
C[C@@H](CN1CCC(n2cncn2)CC1)c1cccc(Cl)c1	-8	1.06
O=C(NCc1cccs1)N1CCN(C[C@H](O)C2CC2)CC1	5	-1.03
CCn1ccc(C(=O)N2CC[C@H](OCc3ccccc3)C2)n1	-11	1.24
COc1ccc(N2CCN(C(=O)c3cnns3)CC2)nc1	-6	0.9
Cn1cc([C@@H]2CCCN2Cc2cnn(-c3ccccc3)n2)cn1	-1	0.18

SMILES	% Inhibition [%]	Z score
Cc1ccc(NC(=O)N2C3C=CCC2CC3)cc1C (centres undefined)	10	-1.83
COc1ccc(CNC(=O)C[C@@H]2Oc3ccc(Cl)cc3NC2=O)cc1	-12	1.47
C[C@@H](CNC(=O)C(=O)Nc1cccc(C#N)c1)CN1CCN(C)CC1	-7	0.63
COCCc1noc(-c2nc(-c3ccc4c(c3)OCO4)no2)n1	-7	1.19
COc1ccccc1CCC(=O)N1C[C@H]2CC[C@@H](C1)N(CC1CC1)C2=O	0	-0.06
CCN(C(=O)c1nn(C)c2ccc(C)cc12)[C@H]1COC[C@@H]1O	5	-1
CC[C@H](C)S(=O)(=O)Nc1cccc(Cl)c1	-6	0.71
CC[C@@H](c1cccc(OC)c1)N(C)CCn1ccnc1	-5	0.8
Cc1ccc(NC(=O)Cn2c(C)nc3c(c2=O)CN(Cc2cccc(C)c2)CC3)cc1	-10	1.44
Cn1cc(C(F)(F)F)nc1[C@H]1CCCN(C(=O)Cn2cnnn2)C1	-4	0.51
COc1cc(F)cc(CN=C2NCCCCN2)c1	-5	1.02
C[C@@H](Cc1cn(C)c2ccc(F)cc12)Nc1ncnc2c1ncn2C	-4	0.69
CCO[C@H]1CN(Cc2ccc(OC)c(Cn3cccn3)c2)C[C@@H]1O	7	-1.27
F[C@@]1(c2nc(-c3ccccc3)no2)CCCN(CC2CCCCC2)C1	-9	1.16
CNC(=O)C1CN(C(=O)CCC(C)OC)CCO1 (centres undefined)	7	-0.85
Cc1ncccc1-c1nc(-c2cccc(-n3c(C)c[nH]c3=O)c2)no1	-1	0.2
CCN(CCCC(=O)O)[C@@H](C)c1cccc(O)c1	-3	0.37
CCOc1ccc(NC(=O)N(C)c2c(C)noc2C)cn1	7	-1.2
Cc1ccc(-n2cccn2)c(CN2CCC(CCC(=O)N3CCCC3)CC2)c1	-3	0.54
CO[C@@]1(C(F)(F)F)CCCN(Cc2cc(=O)n3nc(N)[nH]c3n2)C1	-14	1.53
CNc1nn(CC(=O)NCc2ccccc2Cl)c(N)c1-c1nc(-c2ccc(Cl)cc2)no1	2	-0.24
